Measured values from PubChem BioAssay AID1347073 (National Center for Advancing Translational Sciences (NCATS), 2019).
Among all 45,000 compounds or so, about 200 (0.44%) were called active. About 7% were inconclusive and are not listed. Calls come from the whole dose curve; as a rule, active = well fitted activation curve with a large enough effect; inconclusive = small, poorly fitted or top-dose-only effect; inactive = no such curve, though single readings can be large or run the other way. Some of the results follow.

test: qHTS of TDP-43 Inhibitors: NCGC Sytravon Library Screen; settings: yeast TDP-43 toxicity rescue, BacTiter-Glo growth, 24 h; series mostly up to 46.1 µM; growth rescue (activation): at the top concentration; note: nearly all actives have a fitted effect of over 55% in size; for growth rescue (activation): 0% is about no effect
How it was run: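 TDP-43-expressing yeast, pregrown in raffinose, seeded at OD600 0.02 in galactose medium with compound for 24 hr at 30 deg C. Growth read by BacTiter-Glo luminescence, so rescue of toxicity appears as activation.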
Potency is the fitted concentration of half-maximal effect.

Row | Compound | growth rescue (activation) | Potency
1 | O=C(Nc1cccc(C(F)(F)F)c1)Nc1ccc(N2CCCC2)c(S(=O)(=O)Nc2ccccc2Cl)c1 | inactive: -8.18% | 
2 | COc1ccc(Cl)cc1NC(=O)CSC1=NN2CCCC(=O)N=C2S1 |  | active: 14.1 µM
3 | C=CCN1C(=O)/C(=C\c2cccc(OC(=O)c3ccco3)c2)SC1=S | inactive: 1.45% | 
4 | COc1ccc(NC(=O)CC2(CC(=O)O)CCCC2)cc1 | inactive: 2.01% | 
5 | CC(=O)c1cnc2c(-c3cccc(Br)c3)cnn2c1C | inactive: 19.9% | 
6 | O=C(CSc1nc2cc(Cl)ccc2s1)NCc1ccc2c(c1)OCO2 | inactive: 13% | 
7 | CN(C)c1ccc(-c2ccnc3c2CC(C)(C(=O)Nc2ccccc2)O3)cc1 (configuration not stated) | inactive: 6.17% | 
8 | CCN1C(=O)N(C(C)=O)C2C1N(C(C)=O)C(=O)N2C(C)=O (configuration not stated) | inactive: -5.03% | 
9 | O=C(Nc1ccc(OCc2ccccc2)cc1)Nc1nnc([C@@H]2C[C@H](O)[C@@H](CO)O2)s1 | inactive: 8.08% | 
10 | CCC(=O)NCCc1nc2cc(NC(=O)c3ccc(Cl)cc3)ccc2n1C | inactive: -33.1% | 
11 | O=C(N/N=C/c1ccc(-c2cccc(C(F)(F)F)c2)o1)c1ccccc1O | inactive: 7.74% | 
12 | CCSc1nnc(-c2cc(Br)ccc2NC(C)=O)c(=O)[nH]1 | inactive: 10.6% | 
13 | COc1ccc(/C=N/Nc2nnc(Cc3ccc(OC)c(OC)c3)c(=O)[nH]2)cc1 | inactive: -9.41% | 
14 | CCOC(=O)C1=C(C)NC(=S)NC1c1cccs1 (configuration not stated) | inactive: 22.9% | 
15 | Cc1csc(NC(=O)CN2C(=O)C3CC=CCC3C2=O)n1 (configuration not stated) | inactive: 13.9% | 
16 | O=C(CCCCn1c(=O)[nH]c2ccsc2c1=O)NCCc1ccccc1 | inactive: 17.4% | 
17 | O=C1/C(=C2/NCCN2C2CC(=O)N(c3ccccc3)C2=O)CC/C1=C\c1ccccc1 (configuration not stated) | inactive: -5.53% | 
18 | Cc1ccc(NCC(=O)Nc2ccc(Br)cc2)cc1F | inactive: 5.21% | 
19 | Cn1ncc2c(NNC(=O)c3ccc(O)cc3)ncnc21 | inactive: -10.9% | 
20 | COc1ccc(Cl)cc1S(=O)(=O)N(C)CC(=O)N1CCOCC1 | inactive: -19.9% | 
21 | NC(=O)CN(c1ccc(Cl)cc1)S(=O)(=O)c1ccccc1 | inactive: -5.89% | 
22 | NC1=NC2(CCCCC2)N=C(Nc2ccc(Br)cc2)N1 | inactive: -10.6% | 

Row | Compound | growth rescue (activation) | Potency
23 | COc1ccc(C2=NC(C)(C)N(CC(=O)Nc3ccc(F)c(F)c3)C2=O)cc1 | inactive: 31% | 
24 | Cc1ccc(OCC(O)Cn2c(=N)n(CCN3CCCCC3)c3ccccc32)cc1 (configuration not stated) | inactive: 3.61% | 
25 | COc1ccc(C2C(C(=O)c3ccco3)=C(O)C(=O)N2c2nnc(C)s2)cc1OC (configuration not stated) | inactive: 11.7% | 
26 | CCOC(=O)C1CCN(C(=O)c2ccc(C)c(S(=O)(=O)N3CCCC3)c2)CC1 | inactive: 9.41% | 
27 | COc1ccccc1/C=C/C=N/NC(=O)CN1CCN(S(=O)(=O)c2ccc(C)cc2)CC1 | inactive: 17.1% | 
28 | COc1ccc(S(=O)(=O)N2CCOCC2)cc1NC(=O)CSc1ccccc1 | inactive: 15.9% | 
29 | COc1ccc(N2CCN(CC(=O)NC(=O)NCc3ccco3)CC2)cc1 | inactive: -7.04% | 
30 | O=c1oc2ccccc2c2[nH]ccc12 | inactive: -18% | 
31 | Cc1cccc(-c2nc(Nc3ccc(O)cc3)c3ccccc3n2)c1 | inactive: 3.03% | 
32 | CCN(CC)S(=O)(=O)c1cccc(-c2n[nH]c(=S)n2/N=C/c2ccc(OC)cc2)c1 | inactive: 28.7% | 
33 | Cc1cc(C(=O)Nc2ccccc2C(=O)O)c(C)o1 | inactive: -32.2% | 
34 | Cc1nc2nc(SCC(=O)NCCCN3CCCCC3)nn2c(C)c1Cc1ccccc1 | inactive: -3.91% | 
35 | CCc1ccc(OCCNC(=O)c2ccccc2SCc2ccccc2)cc1 | inactive: 24.5% | 
36 | O=C(O)c1cccc(S(=O)(=O)Nc2cccc(S(=O)(=O)N3CCCCCC3)c2)c1 | inactive: -14.9% | 
37 | COc1ccc(OC)c(NC(=S)NCc2ccccc2OC)c1 | inactive: -3.37% | 
38 | Cc1ccc(O)c(-c2cc(C(=O)Nc3cccnc3)[nH]n2)c1 | inactive: 9.89% | 
39 | Cc1cccc(NC(=O)CN2C(=O)N/C(=C\c3cccn3-c3cccc(C(=O)O)c3)C2=O)c1 | inactive: 6.5% | 
40 | CC(NC(=O)CCc1nnc(C2(c3ccc(Cl)cc3)CCC2)o1)C1CC1 (configuration not stated) | inactive: -1.84% | 
41 | CCOC(=O)C1(CCOc2ccccc2)CCN(Cc2cccc(OC)c2OC)CC1 | inactive: -0.881% | 
42 | CCOC(=O)c1cc(-c2nnc(SCC(=O)Nc3ccc(F)cc3)o2)c(C)nc1C | inactive: 18.6% | 
43 | Cc1ccc(C(=O)NCCNC(=O)Cc2ccccc2)cn1 | inactive: 6.2% | 
44 | FC(F)(F)c1ccccc1-n1c(-c2ccco2)n[nH]c1=S | inactive: 12.7% | 

Row | Compound | growth rescue (activation) | Potency
45 | CCNC(=O)CC1C(=O)N(CC)C(=S)N1NC(=O)c1ccccc1 (configuration not stated) | inactive: -7.93% | 
46 | CCN(CC)CCNC(=O)c1cc2c(=O)n(C)c3ccccc3c2s1 | inactive: -22% | 
47 | COC(=O)c1nnn(-c2nc(N(C)C)nc(N(C)C)n2)c1C | inactive: 2.77% | 
48 | Cc1cc(C)n2nc(SCC(=O)N3CCc4ccccc43)nc2n1 | inactive: 4.69% | 
49 | c1ccc(-c2ccc(-c3[nH]ncc3CN3CCC(N4CCSCC4)CC3)cc2)cc1 | inactive: -3.73% | 
50 | Cc1cc(C)n(CCC(=O)N/N=C/c2ccc(Cl)c([N+](=O)[O-])c2)n1 | inactive: 0.721% | 
51 | Cc1cc(Nc2cccc(Cl)c2)nc(N2CCOCC2)n1 | inactive: 2.31% | 
52 | COc1ccc(C(=O)N2CCN(C(=O)CC(C)C)CC2)cc1OC | inactive: -3.16% | 
53 | CCNc1c(NS(=O)(=O)c2ccc(Cl)s2)c(=O)oc2ccccc12 | inactive: 19% | 
54 | CC1CN(C(=O)C2CC(=O)N(c3ccc(Cl)cc3)C2)CC(C)O1 (configuration not stated) | inactive: 6.74% | 
55 | Cc1ccc2c(CN3CCCCC3C)cc(=O)oc2c1C (configuration not stated) | inactive: 1.84% | 
56 | O=C1CCCC2=C1C(c1cccc(O)c1)C1=C(N2)c2ccccc2C1=O (configuration not stated) | inactive: 0.112% | 
57 | COCCn1c(SCC(=O)N2CCOCC2)nnc1-c1ccco1 | inactive: 13.2% | 
58 | COc1ccc(CNC(=O)Cn2cccc2C(=O)c2ccccc2C)cc1 | inactive: 23% | 
59 | CCC(=O)NC(Nc1nc(C)cs1)(C(=O)OC)C(F)(F)F (configuration not stated) | inactive: 15.2% | 
60 | O=C(NC1CCCC1)c1cc2nc(-c3ccco3)cc(C(F)(F)F)n2n1 | inactive: 21% | 
61 | Cc1cccc(C)c1N(CC(=O)NCc1ccccc1)C(=O)c1csnn1 | inactive: -0.232% | 
62 | Cc1cc(=O)oc2cc(OC(C(=O)O)c3ccccc3)ccc12 (configuration not stated) | inactive: -25.8% | 
63 | COCCNc1nc(NCCOC)c2sc(-c3ccccc3)cc2n1 | inactive: -0.252% | 
64 | O=C(NNc1c2ccccc2nc2ccccc12)c1cc2ccccc2cc1O | inactive: -36.8% | 
65 | O=Cc1cc(Cl)ccc1OCCN1CCC(Cc2ccccc2)CC1 | inactive: -0.576% | 
66 | CC(C1CC2CCC1C2)N1CC(O)=C(c2nc3ccccc3[nH]2)C1=N (configuration not stated) | inactive: 28.7% | 

Row | Compound | growth rescue (activation) | Potency
67 | COc1ccccc1NS(=O)(=O)c1cccc(C(=O)N/N=C/c2ccc3c(c2)OCCO3)c1 | inactive: 4.07% | 
68 | COc1ccc(NC(=O)N2CCCC(C(=O)Nc3ccccc3OC)C2)cc1 (configuration not stated) | inactive: 18.1% | 
69 | COc1cccc(OC)c1CN1CCCC(C(=O)c2ccccc2SC)C1 (configuration not stated) | inactive: 5.77% | 
70 | COC(=O)Nc1nnc(-c2ccc(OC)cc2)s1 | inactive: 2.29% | 
71 | N#CCSc1ccccc1NC(=O)CN1C(=O)C(=O)N(Cc2ccccc2)C1=O | inactive: 1.39% | 
72 | Cc1cc(C(=O)N/N=C/c2cc(Cl)cc([N+](=O)[O-])c2O)n[nH]1 | inactive: 23.5% | 
73 | CCN(CC)c1ccc(NC(=O)c2ccc(S(=O)(=O)N3CCOCC3)cc2)cc1 | inactive: 17.5% | 
74 | Cc1ccc(S(=O)(=O)N(C)C)cc1NC(=S)NCCc1ccccn1 | inactive: -6.71% | 
75 | O=C(/C=C/c1c(F)cccc1Cl)Nc1ccncc1 | inactive: 14.3% | 
76 | CC1(C(=O)NS(=O)(=O)c2ccccc2Cl)CCN1C(=O)Cc1cc(F)ccc1F (configuration not stated) | inactive: 12.6% | 
77 | CCN(C(=O)CN1CCCc2cc(C)ccc21)c1c(N)n(Cc2ccccc2)c(=O)[nH]c1=O | inactive: -7.46% | 
78 | COc1ccc2nc(NC(=O)c3ccc(NC(=O)C4CCCO4)cc3)sc2c1 (configuration not stated) | inactive: 8.44% | 
79 | COc1ccc(NS(=O)(=O)c2ccc3c(c2)OCCO3)cc1OC | inactive: -0.084% | 
80 | C/C(=N\NC(=O)c1cc(-c2ccc(Cl)s2)[nH]n1)c1ccncc1 | inactive: 0.118% | 
81 | CCC(C)C(=O)Nc1nc2ccc(OC)cc2s1 (configuration not stated) |  | active: 11.2 µM
82 | COC(=O)c1ccc(C2C(C#N)=C(N)Oc3cc(N)ccc32)cc1 (configuration not stated) | inactive: 13.2% | 
83 | Cc1ccc(-c2cc(C(=O)Nc3cc(C)ccc3O)no2)cc1 | inactive: -4.14% | 
84 | CCc1nc(NCCN2CCOCC2)c2oc3ccccc3c2n1 | inactive: 23.6% | 
85 | COC(=O)c1ccc(COc2ccccc2/C=C(\C#N)C(=O)Nc2ccc(C)cc2C)cc1 | inactive: -5.71% | 
86 | O=C(Cn1nnc2ccccc2c1=O)NC1CCCCC1 | inactive: 16.9% | 
87 | Cc1ccc(S(=O)(=O)N(C)c2cc(S(=O)(=O)Nc3ccncc3)c(C)cc2C)cc1 | inactive: 17.4% | 
88 | CC1=C(C(=O)Nc2cccc(C(=O)NC(C)C)c2)SCCO1 | inactive: 2.28% | 

Row | Compound | growth rescue (activation) | Potency
89 | Cc1nc(S(=O)(=O)c2ccc(Cl)cc2)c(NCc2ccccc2)o1 | inactive: 16.8% | 
90 | COc1ccccc1NC(=O)N1C2CCCC1CC(NC(=O)c1ccccc1)C2 (configuration not stated) | inactive: -1.62% | 
91 | CC(=O)Nc1ccc(S(=O)(=O)NCCC(=O)OCC(=O)NCc2ccccc2)cc1 | inactive: 2.36% | 
92 | CCOc1ccccc1NC(=O)COC(=O)c1cc[n+]([O-])cc1 | inactive: 0.882% | 
93 | O=C(O)c1c2c(nc3ccccc13)/C(=C/c1ccc(O)cc1)CCC2 | inactive: 7.04% | 
94 | O=C(c1cc(-c2ccc(Cl)cc2Cl)on1)N1CCCC1 | inactive: 29.6% | 
95 | CCOCCc1nnc(NC(=O)CS(=O)(=O)Cc2ccccc2)s1 | inactive: -0.533% | 
96 | Cc1cc(C)c(N=Cc2c(O)n(-c3nccs3)c(=O)c3ccccc23)c(C)c1 | inactive: 15.8% | 
97 | CCN(C(=O)COC(=O)c1ccc2c(c1)OCO2)c1ccccc1 | inactive: 14.7% | 
98 | Cc1sc2ncnc(SCC(=O)c3ccc4c(c3)OCCO4)c2c1-c1ccccc1 | inactive: -2.79% | 
99 | O=C(/C=C/c1cccnc1)c1ccc(O)cc1 | inactive: 15% | 
100 | COc1ccc(/C=N/NC(=O)CN(C2=NS(=O)(=O)c3ccccc32)c2ccccc2)cc1OC | inactive: 7.1% | 
101 | Fc1ccccc1CN1CCCN(C(=S)Nc2cccc(Cl)c2)C1 | inactive: 25.5% | 
102 | Cc1cccc(N2C(=O)Cc3ccccc3C2=O)c1 | inactive: -32.7% | 
103 | COc1cccc(C(=O)NCC(=O)OCC(=O)Nc2cc(OC)c([N+](=O)[O-])cc2C)c1 | inactive: -9.15% | 
104 | CCOC(=O)N1CCN(C(=O)N2CCOCC2)CC1 | inactive: 20.8% | 
105 | O=C(Nc1ccc(S(=O)(=O)N2CCOCC2)cc1)c1ccc(CN2CCc3ccccc3C2)cc1 | inactive: -11.2% | 
106 | O=S(=O)(Cc1ccccc1)Nc1ccc(F)cc1 | inactive: 9.65% | 
107 | CC(C)C[C@H](NC(=O)NCc1ccc(Cl)cc1)C(=O)O | inactive: -1.82% | 
